These results are taken from a collection of fitness landscapes (doi:10.1126/science.1257360).

Some of the results follow.

B1: PhoQ; a variant is named by its letters at X, in order, P23837 (parent)
chain: MKKLLRLFFPLSLRVRFLLATAAVVLVLSLAYGMVALIGYSVSFDKTTFRLLRGESNLFYTLAKWENNKLHVELPENIDKQSPTMTLIYDENGQLLWAQRDVPWLMKMIQPDWLKSNGFHEIEADVNDTSLLLSGDHSIQQQLQEVREDDDDAEMTHSVAVNVYPATSRMPKLTIVVVDTIPVELKSSYMVWSWFIYVLSANLLLVIPLLWVAAWWSLRPIEALAKEVRELEEHNRELLNPATTRELTSLVRNLNRLLKSERERYDKYRTTLTDLTHSLKTPLXXLQXXLRSLRSEKMSVSDAEPVMLEQISRISQQIGYYLHRASMRGGTLLSRELHPVAPLLDNLTSALNKVYQRKGVNISLDISPEISFVGEQNDFVEVMGNVLDNACKYCLEFVEISARQTDEHLYIVVEDDGPGIPLSKREVIFDRGQRVDTLRPGQGVGLAVAREITEQYEGKIVAGESMLGGARMEVIFGRQHSAPKDE

Variants of B1 are the subject of this experiment. As to the kind of experiment: enrichment ratio after two sorts for PhoP signalling (ratio (wild type AVST 3.29)); higher = more functional. Particulars: with PhoP (E. coli).
Turning to GTTR, the enrichment ratio is not above 0.25. The same measure for AMME: 8.23; for VDFE: not above 0.25; for FMYE: not above 0.25.

Take YYFK: the enrichment ratio is not above 0.25. The same measure for TRMI: 8.07; for ELQL: not above 0.25. Next, SRVA: not above 0.25; SSCC: 17.1. Next, TFTP: not above 0.25. Regarding QVLS, the enrichment ratio is not above 0.25. Next, PLFS: not above 0.25; RPDG: not above 0.25; SYTD: not above 0.25. The same measure for GYIH: not above 0.25; for QNVN: not above 0.25; for PVKI: not above 0.25. The same measure for PYEF: not above 0.25.

On to EDFM, for which the enrichment ratio is not above 0.25. The same measure for FVGA: not above 0.25; for FGQD: not above 0.25. The same measure for VSYL: 1.63.

As for QLFG, the enrichment ratio was not above 0.25.

On to FGYV, for which the enrichment ratio is not above 0.25. Next, ATPH: not above 0.25; GCAW: not above 0.25. In the case of MWNG, the enrichment ratio was not above 0.25. Next, EIGI: not above 0.25. Next, VFPP: not above 0.25; QYME: not above 0.25. Next, IWAV: not above 0.25. On to MNRG, for which the enrichment ratio is not above 0.25. Regarding DVGD, the enrichment ratio is not above 0.25. Next, PTSA: not above 0.25; PFIA: not above 0.25; LLPI: not above 0.25. The same measure for FAEQ: not above 0.25; for AVQR: not above 0.25; for MLMD: not above 0.25. With PRFR, the enrichment ratio was not above 0.25. The same measure for KNKV: not above 0.25. Next, PFHV: not above 0.25. For FWFK, the enrichment ratio was not above 0.25.

With MSGF, the enrichment ratio was 2.34. The same measure for WALA: not above 0.25. On to TWAY, for which the enrichment ratio came out at 0.77. The same measure for KDMR: not above 0.25; for WPWS: not above 0.25; for QPQR: not above 0.25.

For KSFE, the enrichment ratio is not above 0.25. For the variant FPYC, the enrichment ratio was not above 0.25.

As to AYKF, the enrichment ratio was not above 0.25. Next, MCAY: 4.41. Take RVTC: the enrichment ratio was not above 0.25. Next, EMRH: not above 0.25; LCFT: not above 0.25; TAVL: 0.363.

With PVFL, the enrichment ratio was not above 0.25. As to DAGW, the enrichment ratio was not above 0.25. Next, AKYD: not above 0.25; SAPQ: not above 0.25. Turning to YKMG, the enrichment ratio was not above 0.25. The same measure for DLDD: not above 0.25; for YSSN: not above 0.25. On to DYTV, for which the enrichment ratio is not above 0.25. Next, TSNF: 16.1; NMID: not above 0.25. On to QRWV, for which the enrichment ratio is not above 0.25.

Consider TNYN, for which the enrichment ratio was not above 0.25. Next, LPRR: not above 0.25; ERQI: not above 0.25; SLIQ: not above 0.25. Next, GMTN: not above 0.25; CIIR: not above 0.25; IPPC: not above 0.25.

For the variant NIHM, the enrichment ratio is not above 0.25. Next, LGCL: 0.413; QEIT: not above 0.25. Turning to RQMH, the enrichment ratio is not above 0.25. Next, NPDH: not above 0.25; PYPL: not above 0.25.

MFNC: the enrichment ratio is not above 0.25. The same measure for TFAE: not above 0.25; for MLEP: not above 0.25. On to MAQF, for which the enrichment ratio was not above 0.25. Regarding IYTC, the enrichment ratio is not above 0.25. The same measure for YLEY: not above 0.25. Turning to GWLC, the enrichment ratio was not above 0.25.

As for QLKG, the enrichment ratio was not above 0.25. Next, RGHW: not above 0.25; FIKP: not above 0.25; HMCT: not above 0.25. Next, FALR: not above 0.25; YGFE: not above 0.25. The same measure for MEGP: not above 0.25. Turning to WYND, the enrichment ratio is not above 0.25. Regarding QPDV, the enrichment ratio is not above 0.25. Next, FWPT: not above 0.25; TVNS: 18.9; ATHL: not above 0.25. The same measure for AILR: 8.68; for PIKD: not above 0.25; for RHSN: 0.686.

As for KSMC, the enrichment ratio is not above 0.25.

On to INDE, for which the enrichment ratio is not above 0.25. Next, SGIY: 3.04.

For WKYT, the enrichment ratio was not above 0.25. Next, NLQR: not above 0.25; SCPN: not above 0.25. The same measure for HHDF: not above 0.25.

As for LSPW, the enrichment ratio was not above 0.25. The same measure for LDPE: not above 0.25; for QVNE: not above 0.25; for DFPH: not above 0.25.

As for QFFF, the enrichment ratio was not above 0.25. For the variant EEFA, the enrichment ratio is not above 0.25. With EYAM, the enrichment ratio was not above 0.25. Next, IQFF: not above 0.25; LMFC: not above 0.25; RPAQ: not above 0.25. Next, GHAG: not above 0.25. With IWYA, the enrichment ratio was not above 0.25.

Take NCLC: the enrichment ratio was not above 0.25.

In the case of RGFT, the enrichment ratio was not above 0.25. Next, ITPD: not above 0.25.

Turning to IAYY, the enrichment ratio is not above 0.25. Next, LNCW: not above 0.25; LYYH: not above 0.25; KIAN: not above 0.25. The same measure for SLVC: not above 0.25; for RSIA: not above 0.25. Next, LMCF: not above 0.25. PTNQ: the enrichment ratio was not above 0.25. Next, MEVA: 5.89; RYEC: not above 0.25. The same measure for QLQD: not above 0.25; for KAMS: not above 0.25. The same measure for AERN: not above 0.25; for SYSS: 0.822; for LLRG: not above 0.25. Take TEGH: the enrichment ratio stood at 18.1. In the case of NLHT, the enrichment ratio was not above 0.25. Next, TWGF: not above 0.25; TLDK: 0.477. Next, EAQD: not above 0.25.

Consider PFYG, for which the enrichment ratio is not above 0.25. As to KRLC, the enrichment ratio is not above 0.25. The same measure for YQTT: not above 0.25; for TVNQ: 2.1.

On to LMMM, for which the enrichment ratio is not above 0.25.

As for YYHM, the enrichment ratio was not above 0.25. For the variant NAVQ, the enrichment ratio is not above 0.25. With PWES, the enrichment ratio was not above 0.25.
